Screen size: about 310,000 compounds; about 2,200 (0.71%) showed an effect of 50% or more. Effects have a minus sign here. The list shows a part of the results.

Sequence of human ether-à-go-go-related gene (hERG) potassium channel (Q12809 whole entry, looked up): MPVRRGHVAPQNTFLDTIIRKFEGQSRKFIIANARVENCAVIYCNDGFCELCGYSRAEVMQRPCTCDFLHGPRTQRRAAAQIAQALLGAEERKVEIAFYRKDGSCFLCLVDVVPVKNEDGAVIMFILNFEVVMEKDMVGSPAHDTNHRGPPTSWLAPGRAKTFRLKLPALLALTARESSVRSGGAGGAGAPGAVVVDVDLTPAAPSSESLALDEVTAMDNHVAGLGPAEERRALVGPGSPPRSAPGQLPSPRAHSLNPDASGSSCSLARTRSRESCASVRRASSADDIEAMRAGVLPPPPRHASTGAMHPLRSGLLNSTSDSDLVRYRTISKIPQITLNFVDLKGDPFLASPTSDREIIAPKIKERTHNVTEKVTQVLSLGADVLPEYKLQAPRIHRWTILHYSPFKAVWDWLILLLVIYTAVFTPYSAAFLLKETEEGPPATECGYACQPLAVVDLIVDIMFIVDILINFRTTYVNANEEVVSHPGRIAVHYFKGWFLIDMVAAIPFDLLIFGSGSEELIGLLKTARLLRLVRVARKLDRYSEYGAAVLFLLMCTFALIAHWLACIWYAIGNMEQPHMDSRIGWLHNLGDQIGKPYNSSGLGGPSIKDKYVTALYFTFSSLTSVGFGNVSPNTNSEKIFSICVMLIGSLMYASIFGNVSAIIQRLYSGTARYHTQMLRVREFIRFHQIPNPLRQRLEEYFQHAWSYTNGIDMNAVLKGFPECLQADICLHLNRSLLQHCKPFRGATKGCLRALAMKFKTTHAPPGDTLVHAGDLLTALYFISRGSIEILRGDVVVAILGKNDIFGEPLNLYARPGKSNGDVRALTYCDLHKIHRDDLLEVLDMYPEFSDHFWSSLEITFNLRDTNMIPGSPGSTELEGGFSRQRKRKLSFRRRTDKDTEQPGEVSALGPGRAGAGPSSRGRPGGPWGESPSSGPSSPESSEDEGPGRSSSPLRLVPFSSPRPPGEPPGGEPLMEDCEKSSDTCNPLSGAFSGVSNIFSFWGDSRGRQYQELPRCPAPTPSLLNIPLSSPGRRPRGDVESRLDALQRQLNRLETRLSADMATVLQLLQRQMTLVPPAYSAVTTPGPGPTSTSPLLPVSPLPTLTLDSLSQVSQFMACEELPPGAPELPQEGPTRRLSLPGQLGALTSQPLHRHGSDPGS

This assay has as its target human ether-à-go-go-related gene (hERG) potassium channel (human, UniProt Q12809). Put plainly: primary screen, population patch clamp on CHO cells stably expressing hERG.
With `O=C(c1cc(S(=O)(=O)N2CCOCC2)ccc1Cl)N1CCOCC1`, the “hERG current change (%, negative = inhibition) at 1uM” value was 8.34%.

`Cc1nn(C)c(Oc2ccccc2)c1CCNS(=O)(=O)c1ccccc1`: the “hERG current change (%, negative = inhibition) at 1uM” value stood at 8.2%. For `COc1ccc(CSc2nc3ccccc3c(=O)[nH]2)cc1F`, the “hERG current change (%, negative = inhibition) at 1uM” value is recorded as 21.2%. With `Cc1ccc(CNC(=O)CN(C)S(=O)(=O)c2cccs2)cc1` the figure was 10.3%. For `CCCOc1ccc(N2C(=O)CC(N(Cc3ccco3)C(=O)CCC(=O)O)C2=O)cc1` (stereo not shown) the value was 13.4%; for `Cc1nnc(SCC(=O)NCc2ccc3c(c2)OCO3)n1C`, 15.5%; for `Cc1ccc(NC(=O)c2cc(-c3cc(Cl)ccc3O)n[nH]2)cc1C`, 18.2%. Regarding `COCCN(Cc1cc2cc3c(cc2nc1Cl)OCO3)C(=O)c1cccc(C)c1`, the “hERG current change (%, negative = inhibition) at 1uM” value is recorded as 10.1%. As to `CCn1c(=O)c(C(=O)Nc2ccc(C)cc2)c(O)c2ccccc21`, the “hERG current change (%, negative = inhibition) at 1uM” value amounted to 15.8%. For `CCOc1ccc(N(C)C(=O)CCc2nnc3ccc(N4CCCCC4)nn23)cc1` the value was 11.8%; for `c1ccc2c(c1)-c1cccc3c1c-2cc1ccccc13`, 9.53%; for `Cn1nnnc1SCC(=O)NCc1ccc2c(c1)OCO2`, 13%.

Consider `CCOC(=O)c1nn(-c2ccc([N+](=O)[O-])cc2)cc1O`, for which the “hERG current change (%, negative = inhibition) at 1uM” value amounted to 4.72%.

Take `O=C(Nc1ccccc1F)C1CCN(S(=O)(=O)c2cccc3nonc23)CC1`: the “hERG current change (%, negative = inhibition) at 1uM” value came out at 8.37%. With `COC(=O)NC(=S)Nc1ccc(Oc2ccc(Cl)cc2)c(Cl)c1`, the “hERG current change (%, negative = inhibition) at 1uM” value amounted to 15.4%. With `CCCN(CC(=O)Nc1ccccc1OC)C(=O)CC1CCCC1` the figure was 11.7%; with `COc1ccc(N2CCN(C(CNC(=O)Oc3ccccc3)c3cccnc3)CC2)cc1` (stereo not shown), 3.3%. For `COC(=O)c1ccccc1NC(=O)COC(=O)[C@H](C)NC(N)=O` the value was 12.1%. For `FC(F)(F)C1=CC(c2ccc(Br)cc2)=NCCN1` the value was -3.26%; for `Cc1cccc(/C=C2\Sc3ccc(C(=O)N4CCCCC4)cc3N(C)C2=O)c1`, 16.4%.

Regarding `Cc1oc(-c2ccccc2Cl)nc1CS(=O)CC(=O)NCCc1ccccc1` (stereo not shown), the “hERG current change (%, negative = inhibition) at 1uM” value is on record as 18.5%. With `CN(c1ccc(OCC(=O)OCC(=O)NC2CCCC2)cc1)S(=O)(=O)c1ccc2ccccc2c1` the figure was 7.57%; with `Cc1ccc(NC(=O)C(c2ccccc2)c2ccccc2)c(O)c1`, 8.61%; with `COc1cccc(C(=O)Nc2cccc(OCC(=O)c3ccccc3)c2)c1`, 15.4%. With `COc1ccc(N2CCN(c3ccnc4cc(Cl)ccc34)CC2)cc1` the figure was -4.76%. With `CC(C)CN(CC(C)C)c1nc(N)c(C#N)c(CC#N)c1C#N` the figure was -0.539%; with `CCCn1c(C)cc(C(=O)COc2ccc(-c3nnco3)cc2)c1C`, -8.86%.

As to `CC1CCN(C(=O)CSc2nc(=O)n3ccccc3n2)CC1`, the “hERG current change (%, negative = inhibition) at 1uM” value was 16.4%. For `O=C(N/N=C/c1cccc(OC2CSC2)c1)c1ccccc1O` the value was 6.98%; for `CC(=O)NCC(=O)N(Cc1ccco1)C1(C(=O)NC2CCCCC2)CCCCC1`, 3.67%. With `COc1cc(NC(=O)c2ccno2)cc(C(=O)Nc2cccc(C(F)(F)F)c2)c1` the figure was 11.9%; with `COc1cc([N+](=O)[O-])ccc1NC(=O)NCCCN1CCCC1=O`, 13.6%; with `C=CCNC(=O)C1CC(=O)N(c2ccc(OCC(=O)Nc3ccc(C)cc3)cc2)C1` (stereo not shown), -2.13%.

As to `COc1ccc(CNC(=O)C2CCN(S(=O)(=O)c3ccc4nc5c(c(C(=O)O)c4c3)CC(C)CC5)CC2)cc1` (stereo not shown), the “hERG current change (%, negative = inhibition) at 1uM” value is 17.6%. With `Cn1c(CCC(=O)Nc2cc(S(C)(=O)=O)ccc2Cl)nc2cc(S(=O)(=O)N3CCOCC3)ccc21` the figure was -12.8%; with `CC(C)[C@H](NC(=O)C1CC(=O)N(c2ccc3c(c2)OCO3)C1)C(=O)NC1CCCC1` (stereo partly shown), 8.54%; with `COc1cc(C(=O)NC2=NCCS2)cc(OC)c1OC`, 7.19%. With `COc1ccc(C2=NOC3(CC(=O)N(c4ccc(C)cc4)C3=O)C2)c(OC)c1` (stereo not shown) the figure was 7.87%; with `Cc1ccc(NC2=C(N3CCOCC3)C(=O)c3ccccc3C2=O)cc1`, 4.37%. Consider `CCOc1ccccc1/C=N/NC(=O)c1cccc(S(=O)(=O)N2CCOCC2)c1`, for which the “hERG current change (%, negative = inhibition) at 1uM” value was 4.19%. With `O=C1CC(NCc2cccs2)C(=O)N1c1ccc(Cl)cc1` (stereo not shown) the figure was 1.41%; with `Cc1ccn2cc(-c3cccc(NS(C)(=O)=O)c3)nc2c1`, 4.5%; with `Cc1cc(=O)oc2cc(NC(=O)C(C)Oc3ccccc3)ccc12` (stereo not shown), 18.8%. As for `Cc1c(NC(=O)C(C)OC(=O)CCC2CCCC2)c(=O)n(-c2ccccc2)n1C` (stereo not shown), the “hERG current change (%, negative = inhibition) at 1uM” value is 5.81%. For `COc1cc(N2C(=O)c3ccccc3C2=O)c(Cl)cc1C(=O)OCC(=O)N1CCOCC1` the value was 8.96%. For `Cc1cccc(C)c1NC(=O)CNC(=O)C1CC(=O)N(Cc2ccccc2)C1` (stereo not shown) the value was 7.66%; for `O=c1oc(-c2ccc(F)cc2)nc2ccsc12`, 13.2%; for `COc1ccccc1N1CCN(CCCC(=O)c2ccc(F)cc2)CC1`, -43.2%. For the molecule `CCc1cccc2c(=O)c(C(=O)NCCCOC)c[nH]c12`, the “hERG current change (%, negative = inhibition) at 1uM” value was determined as 17%. For `Cc1cccc(C2N(c3nccs3)C(=O)C3CCCN32)c1` (stereo not shown) the value was 3.77%; for `O=C(Oc1ccc2c(-c3ccccc3)cc(=O)oc2c1)c1cccs1`, 16.7%; for `CCN(CCn1cccn1)C(=O)CCc1nnc(C2CCCCC2)o1`, 5.25%. For `COc1cccc(C(=O)NNC2=CC(=O)CC(C)(C)C2)c1` the value was 0.873%; for `c1ccc2c(c1)CSc1ccccc1C2C1=NCCN1` (stereo not shown), 10.5%. With `O=C(CN(C1CC1)S(=O)(=O)c1ccc(S(=O)(=O)N2CCCCCC2)cc1)Nc1ccccc1` the figure was 15.8%. Take `Cc1ccccc1Cn1cc(S(=O)(=O)CC(=O)N2CCCCC2)c2ccccc21`: the “hERG current change (%, negative = inhibition) at 1uM” value turned out to be 8.8%. For `C(/C=C/c1ccccc1)=N/N1CCN(c2ccccc2)CC1` the value was 7.78%. With `O=C(NC1CC1)c1sc2cc(Cl)ccc2c1Cl` the figure was 11.3%; with `Cc1c(C(=O)OC2CCCCC2)sc2nc[nH]c(=O)c12`, 16%. For `N#Cc1ccc(OCC(O)CN2CCN(C(c3ccccc3)c3ccccc3)CC2)cc1` (stereo not shown) the value was -69.5%.

On to `Cc1cc(-c2nn(-c3ccccc3F)cc2CNCCc2cnccn2)c(C)s1`, for which the “hERG current change (%, negative = inhibition) at 1uM” value is -2.82%. Consider `COc1ccc(CCNc2ncccc2C#N)cc1OC`, for which the “hERG current change (%, negative = inhibition) at 1uM” value came out at 9.52%.

As to `CC(=O)N1CCC(N(CCN2CCOCC2)C(=S)Nc2ccc(C)cc2C)CC1`, the “hERG current change (%, negative = inhibition) at 1uM” value stood at 4.82%. With `O=S(=O)(c1cc(F)cc(F)c1)N1CCN(c2ncccn2)CC1` the figure was 10.7%. For `CCC(=O)NC(=S)Nc1ccccc1OC` the value was -15.8%; for `O=C(NCC1CCCO1)C1CC(c2ccccc2Cl)=NO1` (stereo not shown), -2.62%. For `COc1ccc(CN2CCN(C(=O)CC(C)C)CC2)cc1OC` the value was 5.56%; for `Cc1cc(-c2n[nH]c(=S)n2Cc2ccco2)n(C)n1`, 15.1%. Regarding `COc1ccc(-c2cc(C(=O)Nc3ccc(Br)cc3)no2)cc1`, the “hERG current change (%, negative = inhibition) at 1uM” value was found to be 6.41%.

Regarding `O=C(CN(c1cccc(Br)c1)S(=O)(=O)c1ccccc1)N/N=C/c1cc([N+](=O)[O-])ccc1O`, the “hERG current change (%, negative = inhibition) at 1uM” value is 5.12%. Take `CC(=O)N1N=C(c2ccccc2)CC1c1ccc2c(c1)OCO2` (stereo not shown): the “hERG current change (%, negative = inhibition) at 1uM” value worked out at 15.8%. For `COC(=O)c1ccc(Cl)c(NC(=O)CN(c2ccc(OC)c(OC)c2)S(C)(=O)=O)c1` the value was 6.68%. `CCCOC1CCCN(C(=O)c2cc(COc3c(F)cccc3F)on2)C1` (stereo not shown): the “hERG current change (%, negative = inhibition) at 1uM” value is -1.24%.

Take `CCOC(=O)N1CCC(n2c(SCC(=O)NCCC3=CCCCC3)nc3ccccc3c2=O)CC1`: the “hERG current change (%, negative = inhibition) at 1uM” value was -2.01%. With `O=C(O)C1Oc2cc3ccccc3cc2O1` the figure was 4.54%. For `COC(=O)c1ccc(C(=O)OC)c(NC(=O)CN(C)Cc2cccc(Cl)c2Cl)c1` the value was 3.91%; for `CCCS(=O)(=O)N1CCCC(C(=O)NCc2ccc3c(c2)OCO3)C1` (stereo not shown), 6.43%. For `CC(C)Oc1ccc(C(CC(=O)O)NC(=O)CSc2ncn[nH]2)cc1` (stereo not shown) the value was 3.85%; for `COC(=O)CSc1ccc2nnc(-c3ccc(F)cc3)n2n1`, -25.6%; for `COc1ccc(CNCCc2ccc(Cl)cc2)cc1OCc1ccccc1`, -52.2%. As for `CNC(=S)NNC(=O)Cc1ccc(OC)c(OC)c1`, the “hERG current change (%, negative = inhibition) at 1uM” value turned out to be 1.59%. As for `CN(C)c1ccc(NC(=S)N(CCc2ccccc2)C2CC(=O)N(c3c(Cl)cccc3Cl)C2=O)cc1` (stereo not shown), the “hERG current change (%, negative = inhibition) at 1uM” value is listed as 1.88%. With `COc1ccc(CCN(C)C2CCCN(C(=O)Cn3cccn3)C2)cc1OC` (stereo not shown) the figure was 4.24%; with `COc1ccccc1C(=O)COC(=O)c1cc(S(=O)(=O)N2CCCCC2)ccc1N1CCOCC1`, 14.1%; with `CCCCc1ccc(NC(=O)N2CCN(c3cc(C)nc4ccccc34)CC2)c(C)c1`, 4.71%. With `COc1ccc(/C=C\c2cc(OC)c(OC)cc2CC[N+](C)(C)C)cc1OC.[I-]` the figure was 15.9%; with `CS(=O)(=O)N1CCc2cc(C(=O)Nc3ccc(Br)cc3)ccc21`, 14.2%. For `CC1=C(C(=O)OC2CCCCC2)C(c2ccc(N(C)C)cc2)NC(=O)N1` (stereo not shown) the value was 13.9%.

The values above are taken from PMC4336329 (PLoS ONE, 2015).
